Columns and labels:
[1] = target: T1, mouse PPARα (Mus musculus, UniProt P23204)
T1 sequence (P23204 1-468): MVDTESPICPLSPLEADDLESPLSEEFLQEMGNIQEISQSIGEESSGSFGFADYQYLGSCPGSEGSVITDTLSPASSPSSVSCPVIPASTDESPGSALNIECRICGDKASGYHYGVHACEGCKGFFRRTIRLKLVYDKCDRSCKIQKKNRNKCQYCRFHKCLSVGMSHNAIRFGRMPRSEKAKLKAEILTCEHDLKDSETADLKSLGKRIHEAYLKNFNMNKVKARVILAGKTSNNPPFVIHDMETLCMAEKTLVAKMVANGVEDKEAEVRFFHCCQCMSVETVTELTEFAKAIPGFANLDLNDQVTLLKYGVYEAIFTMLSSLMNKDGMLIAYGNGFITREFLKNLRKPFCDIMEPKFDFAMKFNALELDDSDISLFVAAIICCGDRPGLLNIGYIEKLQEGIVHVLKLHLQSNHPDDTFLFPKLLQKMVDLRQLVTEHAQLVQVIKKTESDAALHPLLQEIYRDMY
Experimental: MMTV-LTR1 is native, MMTV-LTR2 is minus CpG, MMTV-LTR3 is TATA only. Orientation is relative to reporter. CH activity is pmole per 10^6 cell min. Assuming the cells double every 24 hours, the maximium cell density is 2×10^6 cells per ml, using the log average cell concentration for each day of exposure. Earliest post fusion-values were used. […] It is merely a concentration in the monotonic portion of the dose response curve which has been used consistently in many experiments.
The comparison was performed by incubating 0.2 ml cells for 3 days in the wells of a microtiter plate at an initial cell concentration of 5×10^5 cells per ml in the presence of increasing amounts of inducer and 50 uM coumarin.
In this test we used an initial cell concentration of 2 million cells/ml contained in 0.2 ml culture medium per well of a 96 well microtiter plate. Coumarin (0.05 mM) and clofibrate (concentration was an experimental variable) were added at the beginning of the incubation time. Cells were incubated for 3 days and the 7-hydroxycoumarin content in the wells was analyzed by fluorescence with excitation at 360 nm and emission at 460 nm using a Cytofluor 2350 (Millipore). […] The elevation in pH increases 7-hydroxycoumarin fluorescence by increasing the proportion of the fluorochrome which is ionized. Quantitation was achieved by comparison to a 7-hydroxycoumarin standard curve.
The ACO-PPRE constructs were centrifuged and resuspended at a density of 2 million cells per milliliter in RPMI media with 9% horse serum. One hundred microliters of the cell suspension was distributed into a total of four rows, two rows being at the opposite end of a 96 well microtiter plate. One set was labeled as clofibrate and the other set was labeled as the blank. Clofibrate was then added at concentration of 3 mM, 2 mM, 1 mM, 0.5 mM & 0 mM to the appropriate wells. Stock concentration of clofibrate was 50 mM in 75 mM NaOH. One hundred microliters of media containing 100 micromolar coumarin was then added to the clofibrate containing wells. The negative control contained cell suspension and 100 uM coumarin only. The plates were placed at […] for three days. In a distinct set of wells, one hundred microliters of hydroxy-coumarin standard was placed in two rows The concentrations are in units of pmoles and the values are: 1250, 625, 313, 156, 78, 39, 19.5 & 0. At the end of the three day incubation period, one hundred microliters of media containing 100 uM coumarin was added to the wells labeled as blank. Next 0.1M Tris pH 9.0 was distributed to the contents of each well. Fluorescence was analyzed with a cytofluor 2350 (Millipore) with excitation at 360 nm and emission at 460 nm (both filters with a 40 nm bandwidth). The net fluorence was calculated by subtracting the fluorescence of the blank wells from the fluorescence of the test wells for each clofibrate concentration. Conversion to pmole product per well was accomplished by comparison to the fluorescence of the standards. The responsiveness of the different constructs to clofibrate induction was measured immediately after viable, hygromycin resistant cells were obtained and periodically thereafter in order to evaluate the stability of the system. The data were graphed as the fold induction relative to the without clofibrate control incubation. This is a measure of the responsiveness of the system and corrects for differences in the negative control values for the different reporter constructs.

[2] = test system: AHH-1 TK± cells
From the text: The reporter gene expression as reported in previous tables and figures is expressed as pmoles product/well in a 96 well microtiter plate as measured fluorometrically. […] A toxicity curve reflecting the relative number of cells/well present at the end of treatment was obtained as a function of chemical concentration. […] This suppression can be corrected for by determining the cell concentration in the well or by determining the suppression of CH activity in a cell line which constitutively expresses the reporter.

[3] = test system: CYP2A6 reporter expression
[4] = test system: CYP2D6 expression from SV40 expression cassette; assay: CYP2D6 expression (bufuralol hydroxylase) from SV40 expression cassette, PPARα surrogate; format: cell-based, human; conditions: SV296 based construction; treatment with 5dAC
[5] = target: T2, native glucocorticoid receptor (Homo sapiens, UniProt P04150); assay: CYP2A6 reporter (coumarin 7-hydroxylase) coupled to GRE/MMTV-LTR promoter, native glucocorticoid receptor of host cells; conditions: for Coumarin Hydroxylase Activity DEX Induced: DEX 2.5 uM
T2 sequence (P04150 1-777): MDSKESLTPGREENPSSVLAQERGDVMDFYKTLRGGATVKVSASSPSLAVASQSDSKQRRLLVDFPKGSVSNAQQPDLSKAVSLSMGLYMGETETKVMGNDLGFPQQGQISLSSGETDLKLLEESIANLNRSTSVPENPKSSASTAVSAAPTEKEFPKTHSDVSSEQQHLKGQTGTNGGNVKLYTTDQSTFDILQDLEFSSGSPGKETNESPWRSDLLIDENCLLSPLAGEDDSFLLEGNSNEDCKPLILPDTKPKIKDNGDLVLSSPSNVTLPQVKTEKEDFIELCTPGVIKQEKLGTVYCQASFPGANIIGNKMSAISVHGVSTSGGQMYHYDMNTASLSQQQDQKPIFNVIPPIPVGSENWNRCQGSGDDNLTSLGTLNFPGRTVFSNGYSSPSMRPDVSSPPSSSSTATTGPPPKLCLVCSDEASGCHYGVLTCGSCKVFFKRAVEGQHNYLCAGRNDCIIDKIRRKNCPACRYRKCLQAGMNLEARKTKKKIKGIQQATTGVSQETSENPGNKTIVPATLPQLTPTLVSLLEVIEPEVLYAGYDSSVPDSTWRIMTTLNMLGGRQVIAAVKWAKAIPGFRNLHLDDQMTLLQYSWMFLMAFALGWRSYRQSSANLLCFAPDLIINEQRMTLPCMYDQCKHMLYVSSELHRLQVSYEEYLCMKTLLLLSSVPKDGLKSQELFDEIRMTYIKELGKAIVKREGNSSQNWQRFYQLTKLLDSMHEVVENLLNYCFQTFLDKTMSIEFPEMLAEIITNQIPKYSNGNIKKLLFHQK

[6] = test system: CYP2A6; conditions: coumarin to 7-hydroxycoumarin; read-out: apparent Km; cited from earlier work

SMILES: Cc1cccc(Nc2cc(Cl)nc(SCC(=O)O)n2)c1C [WY14,463]
- CYP2A6-catalyzed coumarin 7-hydroxylase activity upon treatment of the cells [1]: concentration dependent increase
- potency rank on a molar basis [1]: most potent
- ranking of chemicals of known ability to induce peroxisome proliferation [1]: correctly rank
- reporter gene expression, concentration response [1]: concentration-dependent increases

SMILES: CC(C)(Oc1ccc(C2CC2(Cl)Cl)cc1)C(=O)O (stereo not drawn) [ciprofibrate]
- CYP2A6-catalyzed coumarin 7-hydroxylase activity upon treatment of the cells [1]: concentration dependent increase
- potency rank on a molar basis [1]: followed by ciprofibrate
- ranking of chemicals of known ability to induce peroxisome proliferation [1]: correctly rank
- reporter gene expression, concentration response [1]: concentration-dependent increases
- difference in toxicity among cell lines [2]: No differences in toxicity
- relative toxicity on a molar basis [2]: more toxic on a molar basis
- toxicity to the cells [2]: toxic

SMILES: Nc1ncn([C@@H]2O[C@H](CO)[C@@H](O)[C@H]2O)c(=O)n1 [5-azacytidine]
- expression from the MMTV-LTR (unstable, half life approximately 5 days) [3]: Expression could be restored

SMILES: Nc1ncn([C@H]2C[C@H](O)[C@@H](CO)O2)c(=O)n1 [5dAC, deoxy-5-azacytidine]
- CYP2D6 expression level (bufuralol hydroxylase activity) [4]: not affected
- Glucocorticoid induced expression of CYP2A6 decreased with time in culture [3]: could be restored
- basal expression of CYP2A6 (coumarin hydroxylase activity) declined with time in culture [3]: activity could be restored
- increase of the clofibrate induced signal ([3]; 0.25 ug/mL): 20 to 50 fold

SMILES: C[C@@H]1C[C@H]2[C@@H]3CCC4=CC(=O)C=C[C@]4(C)[C@@]3(F)[C@@H](O)C[C@]2(C)[C@@]1(O)C(=O)CO [DEX, dexamethasone]
- reversal of toxicity of glucocorticoid antagonists upon long term incubation [2]: can be reversed
- DEX induced CH activity above basal levels ([5]; RSV enhancer, MMTV-LTR with CpG island deleted): about 10 fold
- maximal dexamethasone (DEX) induced coumarin 7-hydroxylase (CH) activity ([5]; RSV enhancer, MMTV-LTR with CpG island deleted, low copy vector): 0.1 pmole per (10^6 cells×minute)
- Coumarin Hydroxylase Activity DEX Induced ([5]; cell line T144 (pMF6, HaMSV, GRE, MMTV-LTR2), 2 days): 0.3-0.5 pmole/(10^6 cells×min)
- Coumarin Hydroxylase Activity DEX Induced ([5]; cell line T147 (pMF6, u700, GRE, MMTV-LTR2)): 0.23 pmole/(10^6 cells×min)
- Coumarin Hydroxylase Activity DEX Induced ([5]; cell line T148 (pMF6, u700, GRE, MMTV-LTR2)): 0.15 pmole/(10^6 cells×min)
- Coumarin Hydroxylase Activity DEX Induced ([5]; cell line T149 (pMF6, SV40, GRE, MMTV-LTR2)): 0.18 pmole/(10^6 cells×min)
- Coumarin Hydroxylase Activity DEX Induced ([5]; cell line T150 (pMF6, SV40, GRE, MMTV-LTR2)): 0.16 pmole/(10^6 cells×min)
- Coumarin Hydroxylase Activity DEX Induced ([5]; cell line T156 (pMF6, MSV(5'-3') + SV40, GRE, MMTV-LTR2)): 0.097 pmole/(10^6 cells×min)
- Coumarin Hydroxylase Activity DEX Induced ([5]; cell line T157 (pMF6, MSV(5'-3') + SV40, GRE, MMTV-LTR2)): 0.097 pmole/(10^6 cells×min)
- Coumarin Hydroxylase Activity DEX Induced ([5]; cell line T162 (pMF6, u700(3'-5') + SV40, GRE, MMTV-LTR2)): 0.042 pmole/(10^6 cells×min)
- Coumarin Hydroxylase Activity DEX Induced ([5]; cell line T163 (pMF6, u700(3'-5') + SV40, GRE, MMTV-LTR2)): 0.056 pmole/(10^6 cells×min)
- Coumarin Hydroxylase Activity DEX Induced ([5]; cell line T168 (pMF6, RSV + SV40, GRE, MMTV-LTR2)): 0.068 pmole/(10^6 cells×min)
- Coumarin Hydroxylase Activity DEX Induced ([5]; cell line T169 (pMF6, RSV + SV40, GRE, MMTV-LTR2)): 0.14 pmole/(10^6 cells×min)
- Coumarin Hydroxylase Activity DEX Induced ([5]; cell line T174 (pMF6, KAPPA, GRE, MMTV-LTR2)): 0.004 pmole/(10^6 cells×min)
- Coumarin Hydroxylase Activity DEX Induced ([5]; cell line T176 (pMF6, HaMSV(5'-3') + KAPPA, GRE, MMTV-LTR2)): 0.3-0.5 pmole/(10^6 cells×min)
- Coumarin Hydroxylase Activity DEX Induced ([5]; cell line T177 (pMF6, HaMSV(5'-3') + KAPPA, GRE, MMTV-LTR2), cell adds (Unstable)): 0.26 pmole/(10^6 cells×min)
- Coumarin Hydroxylase Activity DEX Induced ([5]; cell line T178 (pMF6, HaMSV(3'-5') + KAPPA, GRE, MMTV-LTR2), cell adds (Inducibility lost)): 0.34 pmole/(10^6 cells×min)
- Coumarin Hydroxylase Activity DEX Induced ([5]; cell line T180 (pMF6, RSV + KAPPA, GRE, MMTV-LTR2)): 0.07 pmole/(10^6 cells×min)
- Coumarin Hydroxylase Activity DEX Induced ([5]; cell line pEHT144 (pEBVHIStK high copy, HaMSV, GRE, MMTV-LTR2)): 14.4 pmole/(10^6 cells×min)
- DEX inducibility ([5]; pEHT144 (T144 reporter in high copy number vector pEBVHistk)): 7 to 10 fold
- maximal level of CH activity ([5]; pEHT144, DEX-induced): 10-20 pmole/(10^6 cells×min)

SMILES: O=c1ccc2ccccc2o1 [coumarin]
- Km [6]: 1000 nM

From patent US5726041A, “Method for detecting a receptor-ligand complex using a cytochrome P450 reporter gene” (priority 1996, dated 1998)
